According to paper PMC10726135:
The list shows a part of the results. At the low end of the ranking, values are background and their order means little. Measured with an extract: partners may take part in the binding.

Target: T1, HNF4alpha2 (COS-7 nuclear extract) (UniProt P41235)
T1 sequence: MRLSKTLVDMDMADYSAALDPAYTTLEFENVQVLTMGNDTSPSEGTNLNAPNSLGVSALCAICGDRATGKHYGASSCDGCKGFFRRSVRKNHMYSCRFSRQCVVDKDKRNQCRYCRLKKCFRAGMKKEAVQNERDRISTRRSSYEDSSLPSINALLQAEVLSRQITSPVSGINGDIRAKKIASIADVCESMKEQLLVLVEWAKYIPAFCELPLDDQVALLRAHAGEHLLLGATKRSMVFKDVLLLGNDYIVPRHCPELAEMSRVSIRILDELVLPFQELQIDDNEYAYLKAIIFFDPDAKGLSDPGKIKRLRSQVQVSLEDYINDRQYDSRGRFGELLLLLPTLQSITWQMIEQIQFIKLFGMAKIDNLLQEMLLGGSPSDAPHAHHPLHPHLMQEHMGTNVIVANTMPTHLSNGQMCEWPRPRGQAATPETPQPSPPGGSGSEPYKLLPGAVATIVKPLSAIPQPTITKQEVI
Experiment: protein-binding microarray
Conditions: COS-7 nuclear extract on double-stranded Agilent 4x180k PBM; binding buffer, salt, pH and temperature not given; high values mean tight binding; double strand, one strand shown; sequences stand for … in …GCCTAGGGAGATTAGAGTATCGGTCGA

| Sequence | binding signal (log2 normalized intensity) |
| --- | --- |
| TAGACACTGGGGACTAGTAGAGTGGGGAGG | -1.07 |
| GTGGTGGTTCTTGTTTCATTGCACAGTTAC | 2.04 |
| GCTCGGCCCCAGTCCCCCGGACCAGGCCGG | 2.88 |
| ACAGCCTTTTGAGTTTCTACCATAGACCCT | 1.05 |
| TCAGCCTGGCTGTGTAGACATCACCTGCTC | -0.975 |
| GGCCTCTCAGGTCAGGGAAGACTGATAAGA | -1.07 |
| TAGGCATTGTCTTGAAAGATAAAGTGTCTC | 0.294 |
| TTTACTTAACCTTTGATCATATGCATTTCC | 4.18 |
| TCATTTTTTTGATTACCTTAGGGGGAAACA | 0.796 |
| CTGATATAGAACACTTGTACATACTTTTGG | 1.5 |
| GTCTGAATTCTAGTCCTATCACTGTCTAGC | -1.1 |
| TGTGATAGGCATGCAAACTTTGTTTAATGA | 2.47 |
| ACTGCCTCTTACAACGAGGTGCCAGAAACC | -1.07 |
| ACTGCCCTTTGGTGCCTCTTTTTTCTTGTT | 2.16 |
| TGCATAATGGAGCAAAGGTCATCCTGGGCT | 4.87 |
| AGAGCAATCATGGGCCCACAGATGATCAAA | -0.805 |
| GGCGCAGTCCTCTCTCGCGAGAGCCGAAGT | -1.15 |
| ACAAAAACCAAAGGTCACTTCGCATTTCCA | 3.42 |
| TAAAAGGTCCAGAGTTCACTGCAGGCTGGG | 2.77 |
| ACCTTTAAGCCTATAGTTTCTGTTTTGATC | 2.12 |
| TAATCTTCCTTCGGGATTATGGTAGGCAGC | 0.91 |
| CAGGTCAAAAGTTCAAACTTTATTTGATGA | 2.99 |
| ATGTCCTTTGGAGTGCTTTCATCTTTGCGG | 1.16 |
| CAAACAAGTCAATGAGCATTTCACAATTCG | -1.05 |

| Sequence | binding signal (log2 normalized intensity) |
| --- | --- |
| CTGGGGTCAATAGTTGTGTAAATAGCTCAG | 1.71 |
| CAGGAGTGGGAGAAAGCTTTGGACTTTGGG | 4.59 |
| TCTCTTTGTTGACATCTGCTTCCAAAGAGC | -1.19 |
| CAATCCTGGAGAAGGAGCACCAATGACCTT | 3.47 |
| CGATATTAATGGTGACCCCTCAGTTTTTCT | 2.99 |
| GCAGCGAGGACAACCAGAGGTCACTTTTAT | 2 |
| GCGGCGCTGACCCCGGGAGCAGCATGGCCC | 2.11 |
| GGAGGCTGAGGTGGAAGGATCACCTGAGTC | -1.11 |
| TGGCCTGGGAACTTAGCGATTTGGAACCCA | 0.829 |
| TTGCCCTTTCCTAGACGTAAGACAACATCT | 0.374 |
| GCTGACTGGTTGGAATTCCAGTGTTCACAT | 1.49 |
| AGCGAGTTATCTGCATTCCAGCTCAATCAA | -1.17 |
| TAAAGGCTTTTGCAAGAAAACCAGCATGGT | 0.113 |
| AGCACCAGGGATAGCGCCCACACTGCCCAT | -1.09 |
| ATCTGCCAACAGAGTCATCACAATAGGGAA | -1.15 |
| CCCCCACACCATTAGAGAACATGTACTTTG | 3.32 |
| TCTGCTTGCCATTAATGAAAACTGCACTTC | 1.53 |
| ACAGGACAAATCAAGTGAAATGCCAACGGC | -1.08 |
| TTACCATGCCAGAACTTCTCATCTTATCTA | -0.912 |
| CTGGGTTCAGTTACGGGGTGGTTTATCTGC | 1.37 |
| GATAAAAGTGAGCAATGCTGAGTATGCAGC | -1.06 |
| ACAATCTGAAGTCCCCTGTGCTTTGGCCAA | 1.2 |
| AGGGCCTCTCTTCTTGTAATCCCATTTCCC | 1.13 |
| AGGTACAAACATACTTAGGATTTTTGTGCC | 0.442 |

| Sequence | binding signal (log2 normalized intensity) |
| --- | --- |
| CTAGGAGAGTGGACTCACAGCAGGAGGGCT | -1.22 |
| TATGCTTTTATTTAACTTCTGGGGGCAAGG | 1.25 |
| TGCTTATCAGTGTACCTGTCCCTACTCAAT | 0.371 |
| AAGGCAGATTTCTGTCTTTGATCTGCTATC | 0.746 |
| TAGAAGTATGTCTGGGATTTGAAGGAGCAG | -1.11 |
| CACATTCCAGCTCTGTGACTTTACCTGAAA | -1.06 |
| TCTCTCAAGGTTCCCAGCTAAATAAATAAC | -0.682 |
| TTGCGAGGTTCCATGGTGTAATGGTTAGCA | 1.38 |
| CTCTCGCCGAGGCCCCAGGAGACCCCGCGA | 1.82 |
| GGATCAAGTGGCAATAAACTCCGTTATCAC | -0.451 |
| GAGTCCAGAGGTCAAGGCTGCAGCGAGCCA | 1.98 |
| TGAAAGAGCTCAAATGACAGAACAGTCCAG | -0.85 |
| GGATTATCACTGAATCGAGGCTATTCTGTA | -1.05 |
| CAAAAAGTTGGTTGGAGCTATGGGCAGAAA | 0.354 |
| AGAACCCATGCTCTTTGGCCTGGCATTTGA | 0.512 |
| ACAATGATGAAAGGAGCTTGGGAAGACAGA | -1.07 |
| CTCTCTCTCCTAACTATGGTCACGCGGCCA | -0.665 |
| AGGCCGGGCCTCAAGGGAATCTGCTGTAAT | -0.993 |
| GGGTTAGGCCTTTAGAGGATTTACTTATAC | -0.0397 |
| AGAAAGTGAGGAATGCAACCACACCAACAT | -1.11 |
| AAAGGTTGGGGGTGGGGAGGAAGCAAAATT | -1.12 |
| TCTTTTGACCTTTGCCTCATTCTTATTGCC | 4.97 |
| CTGAAGAATTTGGACTTTGCACTAAAAGCC | 6.95 |
| CGGCCTTTCCCGGCTGCCTAAGCACTTGGG | -1.16 |
